Paper PMC8560763, “Roles of metal ions in the selective inhibition of oncogenic variants of isocitrate dehydrogenase 1” (Communications Biology, 2021)
Where “and” joins values, the source holds several entries; their conditions need not be identical. Equal entries are not always repeated.

Legend:
R132H IDH1 [1] = biological target: T1, R132H IDH1 (Homo sapiens, UniProt O75874, R132H); assay: Absorbance assay: kinetics of oxidative reaction (isocitrate to 2OG) by R132H IDH1; assay type: biochemical
T1 construct: made in house; host or cells: Escherichia coli BL21(DE3) pLyS

R132H IDH1 [2] = biological target: T1, R132H IDH1; assay: Absorbance assay: kinetics of reductive reaction (2OG to 2HG) by R132H IDH1; assay type: biochemical
R132H IDH1 [3] = biological target: T1, R132H IDH1; assay: Absorbance assay: effect of metal ions on catalysis and inhibition of R132H IDH1; assay type: biochemical; settings: for inhibition by metal ion: R132H IDH1, metal ions 10 mM in the presence of 10 mM Mg^2+
R132H IDH1 [4] = biological target: T1, R132H IDH1; assay: Differential scanning fluorimetry (DSF) thermal shift, R132H IDH1; assay type: binding; settings: 50 mM Tris-HCl, pH 7.5; for thermal stabilisation by cosubstrates: R132H IDH1, 0.125—4 mM
[5] = R132H IDH1, oxidative reaction with Mn^2+ (10 mM MnCl2)

T1 sequence (O75874 2-414 R132H): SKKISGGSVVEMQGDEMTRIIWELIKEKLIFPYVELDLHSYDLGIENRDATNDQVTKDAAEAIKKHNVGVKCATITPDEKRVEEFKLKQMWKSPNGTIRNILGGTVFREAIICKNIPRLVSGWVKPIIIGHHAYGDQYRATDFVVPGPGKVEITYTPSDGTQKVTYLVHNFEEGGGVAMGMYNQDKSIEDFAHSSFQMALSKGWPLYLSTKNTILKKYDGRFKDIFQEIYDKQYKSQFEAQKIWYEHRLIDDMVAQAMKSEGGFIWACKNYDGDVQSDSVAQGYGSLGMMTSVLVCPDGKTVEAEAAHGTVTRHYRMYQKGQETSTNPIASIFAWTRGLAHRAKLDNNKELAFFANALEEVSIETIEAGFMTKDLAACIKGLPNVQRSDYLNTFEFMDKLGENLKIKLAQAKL

[Cl][Mn][Cl] [MnCl2]
Velocity (R132H IDH1 [1]; Fig. S3f, [MnCl2] 156.25 μM): 0.03395 µM/s and 0.03606 µM/s and 0.03632 µM/s
Velocity (R132H IDH1 [1]; Fig. S3f, [MnCl2] 312.5 μM): 0.04764 µM/s and 0.03843 µM/s and 0.04264 µM/s
Velocity (R132H IDH1 [1]; Fig. S3f, [MnCl2] 625 μM): 0.07633 µM/s and 0.05185 µM/s and 0.07475 µM/s
Velocity (R132H IDH1 [1]; Fig. S3f, [MnCl2] 2500 μM): 0.1927 µM/s and 0.1814 µM/s and 0.1819 µM/s
Velocity (R132H IDH1 [1]; Fig. S3f, [MnCl2] 5000 μM): 0.258 µM/s and 0.2416 µM/s and 0.2414 µM/s
Velocity (R132H IDH1 [1]; Fig. S3f, [MnCl2] 10000 μM): 0.2935 µM/s and 0.2482 µM/s
Velocity (R132H IDH1 [1]; Fig. S3f, [MnCl2] 20000 μM): 0.2324 µM/s and 0.2377 µM/s and 0.2408 µM/s
kcat (R132H IDH1 [1]; R132H IDH1, oxidative reaction with Mn^2+): 0.78 ± 0.08 s⁻¹
Km (R132H IDH1 [1]; [5]): 1640 µM
Vmax (R132H IDH1 [1]; [5]): 290 ± 12 nM/s
Velocity (R132H IDH1 [2]; Fig. S3i, [MnCl2] 97.6562 μM): 0.03678 µM/s and 0.04058 µM/s and 0.04458 µM/s
Velocity (R132H IDH1 [2]; Fig. S3i, [MnCl2] 195.312 μM): 0.1163 µM/s and 0.1054 µM/s and 0.08996 µM/s
Velocity (R132H IDH1 [2]; Fig. S3i, [MnCl2] 390.625 μM): 0.2431 µM/s and 0.2191 µM/s and 0.2481 µM/s
Velocity (R132H IDH1 [2]; Fig. S3i, [MnCl2] 781.25 μM): 0.3293 µM/s and 0.3111 µM/s
Velocity (R132H IDH1 [2]; Fig. S3i, [MnCl2] 1562.5 μM): 0.3658 µM/s and 0.3408 µM/s and 0.3418 µM/s
Velocity (R132H IDH1 [2]; Fig. S3i, [MnCl2] 3125 μM): 0.3696 µM/s and 0.346 µM/s and 0.3834 µM/s
Velocity (R132H IDH1 [2]; Fig. S3i, [MnCl2] 6250 μM): 0.3348 µM/s and 0.3914 µM/s and 0.3726 µM/s
fold difference in KM between R132H IDH1 and wt IDH1 (R132H IDH1 [2]; MnCl2 substituted for MgCl2): 210 fold
Vmax (R132H IDH1 [2]; R132H IDH1, reductive reaction (2OG to 2HG) with Mn^2+ (10 mM MnCl2)): 421 ± 18 nM/s
Km (R132H IDH1 [2]; R132H IDH1, reductive reaction (2OG to 2HG) with Mn^2+ (10 mM MnCl2), read-out: KM): 422 ± 67 µM
kcat (R132H IDH1 [2]; R132H IDH1, reductive reaction with Mn^2+): 1.04 ± 0.05 s⁻¹
effect of metal ion on catalysis (R132H IDH1 [3]; R132H IDH1, metal ions 10 mM): promoted
thermal shift (shift in Tm) (R132H IDH1 [4]; R132H IDH1, divalent metal ions (5 mM)): destabilise

NC(=O)C1=CN([C@@H]2O[C@H](COP(=O)(O)OP(=O)(O)OC[C@H]3O[C@@H](n4cnc5c(N)ncnc54)[C@H](OP(=O)(O)O)[C@@H]3O)[C@@H](O)[C@H]2O)C=CC1 [NADPH]
Velocity (R132H IDH1 [2]; Fig. S2k, [NADPH] 3.125 μM): 0.02509 µM/s and 0.02983 µM/s and 0.0179 µM/s
Velocity (R132H IDH1 [2]; Fig. S2k, [NADPH] 6.25 μM): 0.06194 µM/s and 0.063 µM/s and 0.05106 µM/s
Velocity (R132H IDH1 [2]; Fig. S2k, [NADPH] 25 μM): 0.2114 µM/s and 0.2116 µM/s and 0.2079 µM/s
Velocity (R132H IDH1 [2]; Fig. S2k, [NADPH] 50 μM): 0.2271 µM/s and 0.1953 µM/s and 0.2485 µM/s
Velocity (R132H IDH1 [2]; Fig. S2k, [NADPH] 100 μM): 0.2482 µM/s and 0.219 µM/s and 0.2464 µM/s
Velocity (R132H IDH1 [2]; Fig. S2k, [NADPH] 200 μM): 0.2183 µM/s and 0.293 µM/s and 0.2158 µM/s
Velocity (R132H IDH1 [2]; Fig. S2k, [NADPH] 400 μM): 0.2857 µM/s and 0.2293 µM/s and 0.2699 µM/s
Velocity (R132H IDH1 [2]; Fig. S3h, MnCl2 as metal, [NADPH] 6.25 μM): 0.04817 µM/s and 0.03132 µM/s and 0.02448 µM/s
Velocity (R132H IDH1 [2]; Fig. S3h, MnCl2 as metal, [NADPH] 25 μM): 0.2282 µM/s and 0.2424 µM/s and 0.2506 µM/s
Velocity (R132H IDH1 [2]; Fig. S3h, MnCl2 as metal, [NADPH] 50 μM): 0.293 µM/s and 0.3151 µM/s and 0.2403 µM/s
Velocity (R132H IDH1 [2]; Fig. S3h, MnCl2 as metal, [NADPH] 100 μM): 0.3353 µM/s and 0.3893 µM/s and 0.3022 µM/s
Velocity (R132H IDH1 [2]; Fig. S3h, MnCl2 as metal, [NADPH] 200 μM): 0.3656 µM/s and 0.3853 µM/s and 0.3403 µM/s
Velocity (R132H IDH1 [2]; Fig. S3h, MnCl2 as metal, [NADPH] 400 μM): 0.383 µM/s and 0.4209 µM/s and 0.3522 µM/s
thermal stabilisation by cosubstrates (R132H IDH1 [4]): stabilise

NC(=O)c1ccc[n+](C2OC(COP(=O)(O)OP(=O)([O-])OCC3OC(n4cnc5c(N)ncnc54)C(OP(=O)(O)O)C3O)C(O)C2O)c1 (centres unmarked) [NADP^+]
Velocity (R132H IDH1 [1]; Fig. S3e, MnCl2 as metal, [NADP+] 9.375 μM): 0.0537 µM/s and 0.04133 µM/s and 0.04633 µM/s
Velocity (R132H IDH1 [1]; Fig. S3e, MnCl2 as metal, [NADP+] 18.75 μM): 0.08186 µM/s and 0.06791 µM/s and 0.07949 µM/s
Velocity (R132H IDH1 [1]; Fig. S3e, MnCl2 as metal, [NADP+] 37.5 μM): 0.114 µM/s and 0.1034 µM/s and 0.09713 µM/s
Velocity (R132H IDH1 [1]; Fig. S3e, MnCl2 as metal, [NADP+] 75 μM): 0.1466 µM/s and 0.1366 µM/s and 0.1263 µM/s
Velocity (R132H IDH1 [1]; Fig. S3e, MnCl2 as metal, [NADP+] 150 μM): 0.1916 µM/s and 0.1624 µM/s and 0.1732 µM/s
Velocity (R132H IDH1 [1]; Fig. S3e, MnCl2 as metal, [NADP+] 300 μM): 0.2479 µM/s and 0.2264 µM/s and 0.2166 µM/s
Velocity (R132H IDH1 [1]; Fig. S3e, MnCl2 as metal, [NADP+] 600 μM): 0.3103 µM/s and 0.2782 µM/s and 0.2574 µM/s
Velocity (R132H IDH1 [1]; Fig. S3e, MnCl2 as metal, [NADP+] 1200 μM): 0.2951 µM/s and 0.2651 µM/s and 0.2961 µM/s
Velocity (R132H IDH1 [1]; Fig. S2h, [NADP+] 4.6875 μM): 0.01246 µM/s and 0.01299 µM/s and 0.01018 µM/s
Velocity (R132H IDH1 [1]; Fig. S2h, [NADP+] 18.75 μM): 0.03141 µM/s and 0.02737 µM/s and 0.02492 µM/s
Velocity (R132H IDH1 [1]; Fig. S2h, [NADP+] 37.5 μM): 0.03246 µM/s and 0.03299 µM/s and 0.03369 µM/s
Velocity (R132H IDH1 [1]; Fig. S2h, [NADP+] 75 μM): 0.03861 µM/s and 0.03088 µM/s and 0.03352 µM/s
Velocity (R132H IDH1 [1]; Fig. S2h, [NADP+] 150 μM): 0.04141 µM/s and 0.03474 µM/s and 0.03738 µM/s
Velocity (R132H IDH1 [1]; Fig. S2h, [NADP+] 300 μM): 0.04018 µM/s and 0.03562 µM/s and 0.03773 µM/s
Velocity (R132H IDH1 [1]; Fig. S2h, [NADP+] 600 μM): 0.04247 µM/s and 0.04194 µM/s and 0.03808 µM/s
Velocity (R132H IDH1 [1]; Fig. S2h, [NADP+] 1200 μM): 0.04247 µM/s and 0.03632 µM/s and 0.04124 µM/s
Velocity (R132H IDH1 [1]; Fig. S2h, [NADP+] 2400 μM): 0.04001 µM/s and 0.04054 µM/s and 0.0372 µM/s
thermal stabilisation by cosubstrates (R132H IDH1 [4]): stabilise

[Na+] [Na^+]
inhibition by metal ion (R132H IDH1 [3]): inhibited

[Cl][Ni][Cl] [Ni^2+, NiCl2]
inhibition by metal ion (R132H IDH1 [3]): inhibitory

[Cl-].[Cl-].[Sr+2] [Sr^2+, SrCl2]
inhibition by metal ion (R132H IDH1 [3]): inhibiting

[Cl-].[Cl-].[Zn+2] [Zn^2+, ZnCl2]
inhibition by metal ion (R132H IDH1 [3]): inhibitory
